Data from PubChem BioAssay (NCI).
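1) Cells in 96-well plates. 2) Compound, 48 h, 5 concentrations. 3) Linear interpolation between surrounding doses. 4) Unreached endpoint = highest concentration. GI50 = concentration required for 50% inhibition of growth. TGI: concentration producing complete growth inhibition.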

What follows are molecules tested on NCI-H322M lung (assay: DTP human tumour cell line panel, 48 h).

Question: With `O=C1C(Cl)=C(N2CCN(c3ccccn3)CC2)C(=O)c2ncccc21` as the molecule, how does the TGI read?
Answer: Its TGI is 24.8 µM.

Question: With `CN(C)c1ccc(C(=NN)c2ccc(N(C)C)cc2)cc1` as the molecule, how does the TGI read?
Answer: Its TGI is greater than 100 µM.

Question: Which results are given for `COc1ccc2c(c1)N(CCO)C1=C(C(=O)OC1)C2c1ccccc1` (stereo not given)?
Answer: GI50: 2.33 µM; TGI: > 50 µM

Question: How did the TGI turn out when `COc1cccc2cc(C(=O)Nc3ccccn3)c(=N)oc12` was run?
Answer: Its TGI is greater than 100 µM.

Question: How did the TGI turn out when `O=[N+]([O-])c1cccc2nc3ccccc3c(NCCCN3CCCCC3)c12` was run?
Answer: Its TGI is 0.0894 µM.

Question: How did the TGI turn out when `C[C@@H]1CC[C@@H]2[C@@H](C)C[C@H]3[C@@H]4C(C)(C)OC(=O)[C@]4(C)C(=O)[C@@]23C1=O` was run?
Answer: Its TGI is greater than 100 µM.

Question: For `CN(C)CCNC(=O)c1cccc2ncc(-c3ccccc3)nc12`, which TGI is on record?
Answer: Its TGI is 35.1 µM.

Question: With `CC(O)CN1c2ccccc2Sc2ccc(Cl)cc21` (stereo not given) as the molecule, how does the TGI read?
Answer: The TGI was greater than 10 µM.

Question: Which TGI does the source give for `NC(N)=NS(=O)(=O)c1ccc(NC(=O)c2ccc3[nH]c4ccccc4c(=O)c3c2)cc1` here?
Answer: The TGI was greater than 100 µM.

Question: For `COc1ccc2nc3n(c2c1)C(c1c(Cl)cccc1Cl)SC3` (stereo not given), which TGI is on record?
Answer: Its TGI is greater than 100 µM.

Question: For `COc1cc(/C=C\c2cc(/C=C\c3ccc(O)c(OC)c3)n(C(=O)CNc3ccc(Cl)cc3)n2)ccc1O`, which GI50 is on record?
Answer: The GI50 was 3.59 µM.

Question: And the TGI?
Answer: Its TGI is 18.2 µM.

Question: `NC(=S)NS(=O)(=O)c1ccc(F)cc1F` was tested. Which TGI did it give?
Answer: Its TGI is greater than 100 µM.

Question: Which TGI does the source give for `COC(=O)c1cc(C)n(CN(Cc2ccccc2)Cn2nc(C(=O)OC)cc2C)n1` here?
Answer: The TGI was greater than 100 µM.

Question: Which GI50 does the source give for `COC(=O)C1=C(O)[C@H](C(=O)OC)[C@]2(O)[C@@H](C(=O)OC)[C@H]1C[C@@H](c1ccc(OC(=O)/C=C/c3ccco3)cc1)[C@@H]2C(=O)OC` here?
Answer: The GI50 was 52.3 µM.

Question: What about the TGI of the same molecule?
Answer: The TGI was greater than 100 µM.

Question: With `CC(NC(NC(C)C12CC3CC(CC(C3)C1)C2)=C(C(Cl)=C(Cl)Cl)[N+](=O)[O-])C12CC3CC(CC(C3)C1)C2` (stereo not given) as the molecule, how does the TGI read?
Answer: The TGI was greater than 100 µM.

Question: With `CC(=O)[O-].[O-]c1c(Cl)cc(Cl)cc1/C=N/Nc1ccccn1.[Zn+2]` as the molecule, how does the TGI read?
Answer: The TGI was 59.5 µM.

Question: `Cc1ccc(-c2cc(-c3c(C)nn(C)c(=O)c3N)[nH]n2)cc1` was tested. Which TGI did it give?
Answer: The TGI was greater than 100 µM.

Question: How did the TGI turn out when `Cc1ccc(/C=C(\C#N)c2ccccc2)cc1` was run?
Answer: Its TGI is greater than 100 µM.

Question: Which GI50 does the source give for `O=C(Cn1c(C(=O)c2ccccc2)nc2ccccc21)c1ccc(F)cc1` here?
Answer: Its GI50 is 51.6 µM.

Question: What about the TGI of the same molecule?
Answer: Its TGI is greater than 100 µM.

Question: For `Cc1c(-c2ccccc2)c(C#N)c2nnn(-c3cccc(Cl)c3)c(=O)n12`, which TGI is on record?
Answer: The TGI was greater than 100 µM.

Question: `COc1cc2c(c(OC(C)=O)c1OC(C)=O)-c1ccc(SC)c(=O)cc1C(NC(C)=O)CC2` (stereo not given) was tested. Which TGI did it give?
Answer: The TGI was 46 µM.

Question: Which results are given for `Cc1cn2c(/C=C3/C(=O)Nc4ccc(F)cc43)c(C)nc2s1`?
Answer: GI50: 34.8 µM; TGI: > 50 µM

Question: Which TGI does the source give for `C=C1CC(COc2ccc3c(C)cc(=O)oc3c2)(c2ccccc2)OC1=O` (stereo not given) here?
Answer: The TGI was 23.7 µM.

Question: For `CCOC(=O)c1c2cccccc2n2c(=O)cc(C)nc12`, which TGI is on record?
Answer: The TGI was greater than 100 µM.

Question: How did the GI50 turn out when `O=C(Nc1cccnc1)c1ccc2ccc3ccc(C(=O)Nc4cccnc4)nc3c2n1` was run?
Answer: Its GI50 is 0.114 µM.

Question: What about the TGI of the same molecule?
Answer: The TGI was greater than 100 µM.

Question: How did the TGI turn out when `Cc1c(C2Cc3ccccc3N2)c2ccccc2n1C` (stereo not given) was run?
Answer: The TGI was greater than 100 µM.

Question: How did the TGI turn out when `CC1OC(O[C@H]2CC[C@]3(C=O)[C@H]4CC[C@]5(C)[C@H](C6=CC(=O)OC6)CC[C@]5(O)[C@@H]4C=C[C@]3(O)C2)CC(O)C1O` (stereo not given in full) was run?
Answer: Its TGI is 1.7 µM.

Question: `[O-][n+]1c(-c2ccccc2)c2nc3ccccc3nc2c2ccccc21` was tested. Which TGI did it give?
Answer: The TGI was greater than 100 µM.

Question: With `O=C(O)CCSC(=S)Nc1cccc(F)c1` as the molecule, how does the TGI read?
Answer: Its TGI is greater than 100 µM.

Question: Which TGI does the source give for `O=C(O)C12C3CCC(O3)C1(C(=O)O)C1CCC2O1` (stereo not given) here?
Answer: The TGI was greater than 100 µM.

Question: For `CCN(CC)CCCC(C)Nc1cc(/C=C/c2ccc(Cl)cc2)nc2cc(N(C)C)ccc12` (stereo not given), which TGI is on record?
Answer: Its TGI is 3.22 µM.

Question: How did the TGI turn out when `O=C(O)c1ccc(Nc2nc3cc(C(F)(F)F)ccc3nc2-c2ccccc2)cc1` was run?
Answer: The TGI was 70.4 µM.

Question: With `O=c1c(-c2ccc(O)cc2)coc2cc(OC3OC(CO)C(O)C(O)C3O)cc(O)c12` (stereo not given) as the molecule, how does the TGI read?
Answer: Its TGI is greater than 100 µM.

Question: How did the TGI turn out when `CC1CCc2c(c(CC3CC(=O)NC(=O)C3)nn2-c2ccccc2)C1` (stereo not given) was run?
Answer: Its TGI is greater than 100 µM.

Question: How did the TGI turn out when `CN(C)Cc1cc(N=Nc2ccc(Cl)cc2)ccc1O` was run?
Answer: Its TGI is 44 µM.

Question: `COc1ccc(NC(=O)CCc2cc(C(C)(C)C)n[nH]2)cc1` was tested. Which TGI did it give?
Answer: Its TGI is greater than 100 µM.

Question: For `O=C1CN(c2ccc(Cl)cc2)C(=O)CN1NCNN1CC(=O)N(c2ccc(Cl)cc2)CC1=O`, which TGI is on record?
Answer: Its TGI is greater than 100 µM.

Question: For `COc1ccc(C[C@H](N)C(=O)N2C[C@@H](CO)C[C@@H](n3cnc4c(N(C)C)ncnc43)C2)cc1`, which TGI is on record?
Answer: Its TGI is greater than 100 µM.

Question: With `O=C1NC(S(=O)(=O)O)=NNC12c1ccccc1-c1ccccc12` as the molecule, how does the TGI read?
Answer: Its TGI is greater than 10 µM.

Question: For `COc1cc(-c2ccc(NC(=O)NC3CC3)c(OC)c2)ccc1NC(=O)NC1CC1`, which GI50 is on record?
Answer: Its GI50 is 15.5 µM.

Question: And the TGI?
Answer: The TGI was greater than 100 µM.

Question: How did the TGI turn out when `CN(C)CCC1(C2=CCCC2)CC/C(=C\c2ccccc2Cl)C1=O` (stereo not given) was run?
Answer: Its TGI is 27.6 µM.

Question: How did the TGI turn out when `NC(N)=NC(N)=Nc1ccccc1` (tested in a mixture with another compound) was run?
Answer: Its TGI is greater than 100 µM.

Question: Which TGI does the source give for `CCN(CC)COC(=S)S` here?
Answer: The TGI was greater than 100 µM.

Question: `CC[C@]12C=CCN3CC[C@@]4(c5ccc(OC)cc5N(C)[C@H]4[C@@](O)(C(=O)OC)[C@@H]1OC(=O)CCC(=O)N[C@H](Cc1c[nH]c4ccccc14)C(=O)OC)[C@@H]32` was tested. Which GI50 did it give?
Answer: The GI50 was 10 µM.

Question: What about the TGI of the same molecule?
Answer: Its TGI is 40.7 µM.

Question: How did the TGI turn out when `COc1ccc2c(CCNS(=O)(=O)c3ccccc3)c(C(C)=O)[nH]c2c1` was run?
Answer: Its TGI is greater than 100 µM.

Question: Which TGI does the source give for `CCN(CC)C(=S)SS(=O)(=O)c1ccccc1[N+](=O)[O-]` here?
Answer: The TGI was greater than 100 µM.

Question: `CC1CC(C)C2=NOS3=C2C1=NO3` (stereo not given) was tested. Which TGI did it give?
Answer: Its TGI is greater than 100 µM.

Question: `CN(C)c1ccc(C2ON=C(c3ccccc3)N2C23CC4CC(CC(C4)C2)C3)cc1` (stereo not given) was tested. Which TGI did it give?
Answer: Its TGI is 6.78 µM.

Question: For `COc1cc(/C=C\c2ccc(OC(C)=O)cc2)cc(OC)c1OC`, which TGI is on record?
Answer: Its TGI is greater than 100 µM.

Question: With `CC1(C)CN=C(Nc2ccc(F)c(F)c2)S1` as the molecule, how does the TGI read?
Answer: Its TGI is greater than 100 µM.

Question: `CC1=NN(C(=O)c2ccc(Cl)cc2)C(=O)/C1=C/c1ccco1` was tested. Which TGI did it give?
Answer: Its TGI is greater than 100 µM.

Question: How did the TGI turn out when `COc1ccc(/C=c2/sc3n(c2=O)NC(c2ccc(Cl)cc2)NN=3)cc1` (stereo not given) was run?
Answer: The TGI was greater than 100 µM.
